Test results as given in PubChem BioAssay AID504466 (National Center for Advancing Translational Sciences (NCATS), 2011).
Screen size: about 330,000 compounds; about 4,200 (1.3%) were called active. The inconclusive results got no clear call from the source; some entries with a clear call stand among them for comparison. Calls come from the whole dose curve; as a rule, active = well fitted activation curve with a large enough effect; inconclusive = small, poorly fitted or top-dose-only effect; inactive = no such curve, though single readings can be large or run the other way. A potency beside an inconclusive call is a rough fit, not a confirmed value.

Test: qHTS screen for small molecules that induce genotoxicity in human embryonic kidney (HEK293T) cells expressing luciferase-tagged ELG1; note: nearly all actives have a fitted effect of over 60% in size; for activity change, positive = activation: % of control where 0% means no effect
Settings: HEK293T ELG1-luciferase reporter, luminescence, 16 h; series mostly up to 46 µM; activity change, positive = activation: at the top concentration
Method in brief: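 ELG1-luciferase HEK293T cells, 2,000/well; compound pinned in; 16 hr, 37 °C, 5% CO2; ONE-Glo, 30 min RT; luminescence on CCD imager.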
Potency is the fitted concentration of half-maximal effect; tags give direction and shape of the fitted curve.

SMILES | Potency | activity change, positive = activation
CC(Oc1ccc(F)cc1Br)c1nc2ccccc2c(=O)[nH]1 (stereo unspecified) | inconclusive: 16.4 µM [activator, partial curve, poor fit] | –
CCCCc1ccc(-c2nc(N)n[nH]2)cc1 | inconclusive: 14.6 µM [activator, partial curve] | –
CCOC(=O)N1CCN(CC(=O)Nc2c(C(=O)OC)[nH]c3cc(C)ccc23)CC1 | – | inactive: -4.85%
O=C(O)c1ccccc1CSc1nc2ccccc2[nH]1 | inconclusive: 23.1 µM [activator, single point] | –
CC(C)(C)[C@@H]1C=C(C(=O)Nc2ccccc2)O[C@H](OCc2ccc(CO)cc2)C1 | – | inactive: -0.101%
Cc1ccc(-c2noc(-c3ccccc3Br)n2)cc1 | inconclusive: 0.651 µM [activator, partial curve] | –
CN(C)c1ccc(-c2nc3ccccc3n2C)cc1 | inconclusive: 0.366 µM [activator, full curve] | –
CCc1ccc(OCC(=O)N2CC(C(N)=O)Oc3ccccc32)cc1 (stereo unspecified) | – | inactive: 0.181%
Cc1ccc(N=Nc2c(C)[nH]n(C(N)=S)c2=O)cc1 | active: 16.4 µM | –
COc1ccc2cc3cc(C(=O)N4CCCCC4C)oc3nc2c1 (stereo unspecified) | active: 2.31 µM | –
CCOC(=O)N/N=C/c1ccc(N(CC)CC)cc1O | inconclusive: 23.1 µM [activator, partial curve, poor fit] | –
Cc1nn(Cc2ccccc2Cl)c(C)c1NC(=O)c1noc2c1CCCCC2 | – | inactive: 2.31%
O=C(CSc1nnc(-c2c[nH]c3ccccc23)o1)N1CCCCC1 | inconclusive: 18.4 µM [activator, partial curve, poor fit] | –
CN(C)S(=O)(=O)Nc1ccc2c(c1)Cc1ccccc1-2 | inconclusive: 16.4 µM [activator, partial curve, poor fit] | –
CCC(CO)NC(=O)c1ccc(-c2nn(C)c(=O)c3ccccc23)cc1 (stereo unspecified) | inconclusive: 20.6 µM [activator, partial curve, poor fit] | –
COc1ccc(C(=O)Nc2ccc3c(c2)OCO3)cc1OC | inconclusive: 16.4 µM [activator, single point] | –
CN(C(=O)c1ccc(S(=O)(=O)N2CCCCC2)cc1)C1CCS(=O)(=O)C1 (stereo unspecified) | – | inactive: -6.14%
Cc1ccc2c(CC(=O)NC3=NCCS3)coc2c1 | inconclusive: 29.1 µM [activator, partial curve, poor fit] | –
Cc1ccc(NC(=S)N(CCN(C)C)Cc2cccs2)c(C)c1 | inconclusive: 32.6 µM [activator, partial curve, poor fit] | –
Clc1ccccc1Cn1nnc(-c2cccs2)n1 | active: 18.4 µM | –
Cn1c(-c2ccc(F)cc2)cnc1SCC(=O)N1CCCCC1 | active: 2.59 µM | –
Clc1ccc(-c2noc(CN3CCOCC3)n2)cc1 | inconclusive: 16.4 µM [activator, partial curve, poor fit] | –
CC(=O)Oc1ccc2c(c1)C(=O)c1ccccc1CO2 | inconclusive: 32.6 µM [activator, partial curve, poor fit] | –
c1ccc(-n2cnc3cc(NCc4ccco4)ccc32)cc1 | inconclusive: 13 µM [activator, partial curve] | –
O=c1c2ccccc2nc2ccc(N3CCOCC3)nn12 | inconclusive: 5.17 µM [activator, single point] | –
CN(N=Nc1ccc([N+](=O)[O-])cc1)c1ccccc1 | inconclusive: 18.4 µM [activator, partial curve] | –

SMILES | Potency | activity change, positive = activation
O=C1C2C(C(=O)N1/N=C/c1cccc([N+](=O)[O-])c1)C1C=CC2C12CC2 (stereo unspecified) | inconclusive: 23.1 µM [activator, single point] | –
COc1ccc(CCNC(=O)c2ccco2)cc1 | inconclusive: 29.1 µM [activator, partial curve, poor fit] | –
O=C(NCCN1CCc2ccccc2C1)Nc1ccc(F)cc1 | – | inactive: -3.45%
COc1ccc(-c2csc(NC(=O)c3ccccc3F)c2C(=O)O)cc1 | – | inactive: -3.91%
CCCCN(C)CCNC(=O)c1cc(-c2cccnc2)nc2ccc(S(=O)(=O)N3CCC(C)CC3)cc12 | inconclusive: 29.1 µM [activator, single point] | –
CCN(CC)CCn1c2c(c(SCC(=O)NCc3ccccc3)nc1=O)CCC2 | – | inactive: -0.711%
Cc1csc(NC(=O)c2oc3ccccc3c2C)n1 | inconclusive: 1.83 µM [activator, full curve] | –
O=C1NC(=Nc2ccccc2)S/C1=C\c1ccccc1 | inconclusive: 23.1 µM [activator, partial curve, poor fit] | –
Cc1ccc(-c2c[n+](Cc3cccc(Cl)c3)c3n2CCC3)cc1 | – | inactive: -12%
Cc1cccc(-c2nnc(-c3ccccc3)o2)c1 | active: 8.2 µM | –
CC1=C(C)C(=O)C(CCCCC#CCCCC#CCO)=C(C)C1=O | inconclusive: 25.9 µM [activator, partial curve, poor fit] | –
CSc1ccc(S(=O)(=O)NC2CCCCCC2)cc1 | – | inactive: 1.99%
COc1ccc(NC(=O)c2cc(C(C)C)on2)cc1OC | inconclusive: 16.4 µM [activator, partial curve, poor fit] | –
COc1ccc(/C=C(/NC(=O)c2ccccc2)C(=O)NCc2ccco2)cc1 | inconclusive: 29.1 µM [activator, partial curve, poor fit] | –
O=C(CSc1ncnc2sc3c(c12)CCC3)NCC1CCCO1 (stereo unspecified) | – | inactive: 1.98%
CCc1ccc(NC(=O)Cn2c(=O)n(CCC(=O)NC3CCN(Cc4ccccc4)CC3)c(=O)c3ccccc32)cc1 | – | inactive: -0.177%
CCOC(=O)Cc1csc(NC(=O)c2ccc(NC(C)=O)cc2)n1 | – | inactive: 2.46%
COc1ccc2nc(Nc3nc(CSc4nnc(C)s4)cc(=O)[nH]3)nc(C)c2c1 | – | inactive: 4.2%
Cc1ccn2cc(CSc3ccccc3N)nc2c1 | inconclusive: 4.11 µM [activator, full curve] | –
O=C(Nc1ccccc1C(=O)NC1CCCCC1)c1ccccc1 | inconclusive: 23.1 µM [activator, partial curve, poor fit] | –
CCOc1ccccc1C(=O)NCC(=O)OCC(=O)N1CCCC1 | – | inactive: 3.9%
COc1ccc(S(=O)(=O)N/N=C\c2ccc3c(c2)OCO3)c(OC)c1 | – | inactive: 1.24%
CC(=O)c1c(C)[nH]c(C(=O)OCC(=O)Nc2cccc(S(=O)(=O)N(C)C)c2)c1C | – | inactive: -6.55%
CCCc1cc(=O)n2[nH]c(-c3cccc(Br)c3)cc2n1 | inconclusive: 18.3 µM [activator, partial curve] | –
Cc1ccc(S(=O)(=O)N2CCN(C(=O)COC(=O)C3CCC3)CC2)cc1 | – | inactive: 0.842%
O=C(NC1CC1)c1ccc(-c2nc3ccccc3s2)s1 | active: 0.259 µM | –

SMILES | Potency | activity change, positive = activation
CCC(=O)Oc1ccc(-c2nc(-c3cccnc3)no2)cc1 | inconclusive: 2.59 µM [activator, full curve, poor fit] | –
O=C(CCNC(=O)c1ccc(Cl)cc1)Nc1nc2ccccc2[nH]1 | inconclusive: 20.6 µM [activator, partial curve, poor fit] | –
COc1cc(OC)c(OC)cc1CNC(=O)c1ccc(COc2ccccc2)cc1 | – | inactive: -11.6%
COc1ccc(C(=O)Cn2cnc3ccccc3c2=O)cc1 | inconclusive: 11.6 µM [activator, partial curve] | –
CC(NC(=O)C(=O)NN=C1CCCCCCC1)c1ccccc1 (stereo unspecified) | – | inactive: 1.78%
Cc1ccc(C2=N/C(=C\c3cccs3)C(=O)N2Nc2ccccc2)cc1 | – | inactive: -2%
O=C(Nc1ccc(COc2ccccc2)cc1)Nc1cccc(C(=O)O)c1 | – | inactive: 10.5%
O=C1c2ccccc2C(=O)C1c1ccccn1 | inconclusive: 9.2 µM [activator, partial curve] | –
COc1cccc(/C=N/NC(=O)CC(C)O)c1OC/C=C/c1ccccc1 (stereo unspecified) | – | inactive: -9.14%
Cc1ccc(NC(=O)c2cc(C)n(-c3ccccc3)c2C)cc1 | active: 0.231 µM | –
Cc1ccc(-c2nc(C)c(C(=O)O)s2)cc1 | inconclusive: 0.517 µM [activator, full curve, poor fit] | –
O=C(OCC1COc2ccccc2O1)c1c(F)cccc1F (stereo unspecified) | inconclusive: 13 µM [activator, single point] | –
O=C(OCC(=O)N1CCCC1)c1ccccc1O | inconclusive: 18.3 µM [activator, partial curve] | –
O=[N+]([O-])c1ccc2nc(-c3ccccn3)[nH]c2c1 | inconclusive: 8.2 µM [activator, partial curve] | –
O=C1C(Cl)=C(NCc2cccnc2)C(=O)c2ccccc21 | – | inactive: -3.62%
CCN(CC)S(=O)(=O)c1ccc(C(=O)Nc2nnc(C(C)C)s2)cc1 | inconclusive: 8.2 µM [activator, partial curve, poor fit] | –
O=C(NCc1cccc(Cl)c1)c1ccc(N2CC3CC(C2)c2cccc(=O)n2C3)c(NC(=O)c2cccnc2)c1 (stereo unspecified) | – | inactive: 4.47%
COc1cc(NC(=O)c2c(OC)cccc2OC)ccc1NC(=O)c1cc2ccccc2o1 | active: 14.6 µM | –
CC(=O)C1=C(O)C(=O)N(Cc2ccco2)C1c1ccc2c(c1)OCO2 (stereo unspecified) | – | inactive: 1.86%
COc1cc(OC)cc(C(=O)N2CC(=O)Nc3ccccc32)c1 | inconclusive: 16.4 µM [activator, single point] | –
CC(C)c1ccc(NC(=O)C2CCCCN2S(=O)(=O)c2ccccc2)cc1 (stereo unspecified) | inconclusive: 29.1 µM [activator, partial curve, poor fit] | –
O=c1oc2cc(Cl)ccc2n1CSc1nc2ccccc2s1 | active: 14.6 µM | –
O=C(Sc1cccc2cccnc12)c1ccc(F)cc1 | inconclusive: 6.51 µM [activator, single point] | –
CCOC(=O)N1CCC(NCc2c(C(=O)N(C)Cc3ccccc3)nc3ccccn23)CC1 | – | inactive: 0.498%
